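1) Cells in 96-well plates. 2) Compound, 48 h, 5 concentrations. 3) Linear interpolation between surrounding doses. 4) Unreached endpoint = highest concentration. GI50 marks 50% less growth.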 For part of its entries the source gives two or more results. They are shown here; other results are not. An entry can have further records. For some assays here: Records of one sample usually come from different ranges of test concentrations, not given here; a value can be the end of its range. For some assays here: Values that stand side by side are repeats across runs, samples, wells, individuals or studies. Marks in square brackets tell the records apart. Letters count within one entry.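 TGI: concentration producing complete growth inhibition.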
Tests used:
Assay in all cases: NCI tumour cell line growth inhibition, 48 h
[1] = test system: XF 498 CNS
[2] = test system: MOLT-4 leukemia
[3] = test system: SF-295 CNS
[4] = test system: LOX IMVI melanoma
[5] = test system: SK-MEL-28 melanoma
[6] = test system: P388 leukemia
[7] = test system: SF-539 CNS
[8] = test system: SNB-78 CNS
[9] = test system: SN12C renal
[10] = test system: SK-OV-3 ovarian
[11] = test system: OVCAR-3 ovarian
[12] = test system: UACC-62 melanoma
[13] = test system: HCC-2998 colon
[14] = test system: A549 NSCLC
[15] = test system: RXF 393 renal
[16] = test system: EKVX NSCLC
[17] = test system: NCI-H226 lung
[18] = test system: SF-268 CNS
[19] = test system: SNB-75 CNS
[20] = test system: NCI-H23 lung
[21] = test system: SK-MEL-5 melanoma
[22] = test system: SN12K1 renal
[23] = test system: SNB-19 CNS
[24] = test system: M14 melanoma
[25] = test system: COLO 205 colon
[26] = test system: IGROV1 ovarian
[27] = test system: NCI-H522 lung
[28] = test system: MALME-3M melanoma
[29] = test system: TK-10 renal
[30] = test system: HS 578T breast
[31] = test system: KM12 colon
[32] = test system: PC-3 prostate
[33] = test system: MDA-MB-435
[34] = test system: HT29 colon
[35] = test system: RPMI-8226 leukemia
[36] = test system: CCRF-CEM leukemia
[37] = test system: ACHN renal
[38] = test system: MDA-MB-231 breast
[39] = test system: BT-549 breast
[40] = test system: MCF7 breast
[41] = test system: UACC-257 melanoma
[42] = test system: HOP-62 NSCLC
[43] = test system: U251 CNS
[44] = test system: SW-620 colon
[45] = test system: HOP-92 NSCLC
[46] = test system: NCI/ADR-RES ovarian
[47] = test system: DU-145 prostate
[48] = test system: NCI-H460 lung
[49] = test system: T-47D breast
[50] = test system: OVCAR-5 ovarian
[51] = test system: UO-31 renal
[52] = test system: CAKI-1 renal
[53] = test system: SK-MEL-2 melanoma
[54] = test system: SR leukemia

`C[C@H]1C/C=C/[C@H]2[C@@H]3O[C@]3(C)[C@@H](C)[C@H]3[C@H](Cc4ccccc4)NC(=O)[C@]32OC(=O)O/C=C/[C@@](C)(O)C1=O` was tested. Which TGI [1] did it give?
The TGI was 480 nM and < 25 nM.

And the TGI [2]?
The TGI was 83.8 µM, 7.58 µM, 3.32 µM.

What about the TGI [3] of the same molecule?
The TGI was 33.3 nM [1 test] and 20.6 µM [mean of 10 tests].

And the TGI [4]?
The TGI was 7.2 µM, 125 µM, 65.5 µM.

And the TGI [5]?
Its TGI is 7.58 µM, 92 µM, > 250 µM.

What about the GI50 [6] of the same molecule?
Its GI50 is 12.5 nM and 142 nM.

And the TGI [7]?
Its TGI is 137 nM, 34.7 nM, 27.1 µM.

And the TGI [8]?
Its TGI is 63.1 nM, 67.2 µM, 62.5 nM.

What about the TGI [9] of the same molecule?
Its TGI is 82.9 µM and < 25 nM.

And the TGI [10]?
The TGI was 1.47 µM and 138 nM.

What about the TGI [11] of the same molecule?
Its TGI is 18.8 µM and 1.7 µM.

And the TGI [12]?
The TGI was 9.17 µM, 125 µM, > 250 µM.

What about the TGI [13] of the same molecule?
The TGI was 15.6 µM, 25.6 µM, 2.5 µM.

What about the TGI [14] of the same molecule?
Its TGI is 94.5 µM, 12.5 µM, 137 µM.

What about the TGI [15] of the same molecule?
The TGI was 33.8 nM and 435 nM.

What about the TGI [16] of the same molecule?
Its TGI is 6.88 µM, 125 µM, > 250 µM.

What about the TGI [17] of the same molecule?
Its TGI is 5.44 µM and 67 µM.

What about the TGI [18] of the same molecule?
The TGI was 6.82 µM, 125 µM, > 250 µM.

What about the TGI [19] of the same molecule?
Its TGI is 81.9 nM and > 250 µM.

And the TGI [20]?
Its TGI is 24.3 µM, 125 µM, > 250 µM.

And the TGI [21]?
The TGI was 1.14 µM, 15.5 µM, 275 nM.

What about the TGI [22] of the same molecule?
Its TGI is 299 nM and 125 µM.

What about the TGI [23] of the same molecule?
The TGI was 8.34 µM and 73.9 nM.

`CN1CCN(c2ccc(OC(F)(F)F)c(Nc3ncc4c(n3)-c3c(c(C(N)=O)nn3CCO)CC4)c2)CC1` was tested. Which TGI [24] did it give?
The TGI was 18.8 µM [sample A, mean of 2 tests] and 299 nM [sample B, mean of 2 tests].

What about the TGI [25] of the same molecule?
The TGI was 14 µM [sample A, mean of 2 tests] and 321 nM [sample B, mean of 2 tests].

And the GI50 [26]?
The GI50 was 853 nM [sample A, mean of 2 tests] and 81.6 nM [sample B, mean of 2 tests].

What about the TGI [27] of the same molecule?
The TGI was 12 µM [sample A, mean of 2 tests] and 379 nM [sample B, mean of 2 tests].

And the GI50 [28]?
Its GI50 is 14.1 µM [sample A, mean of 2 tests] and 404 nM [sample B, mean of 2 tests].

And the TGI [29]?
Its TGI is 52 µM [sample A, mean of 2 tests] and 2.15 µM [sample B, 1 test].

Which results are given for `CCCCCCCCCC[C@@H](O)[C@@H]1CC[C@@H]([C@@H]2CC[C@@H]([C@@H](O)CCCCCCCCCC[C@H](O)CC3=CC(C)OC3=O)O2)O1` (some centres not stated)?
TGI [2]: 6.93 µM and > 100 µM; TGI [4]: 4.52 µM and > 100 µM; TGI [30]: 7.96 µM and 81.9 µM; TGI [31]: 9.77 µM and > 100 µM; TGI [12]: 7.3 µM and 98.7 µM; TGI [32]: 8.47 µM and > 100 µM; TGI [33]: 5.18 µM and > 100 µM; TGI [34]: 5.71 µM and > 100 µM; TGI [18]: 9.6 µM and > 100 µM; TGI [35]: 8.3 µM and > 100 µM; TGI [36]: 7.27 µM and > 100 µM

Which GI50 [9] does the source give for `CCOC(=O)Nc1nc2ccccc2[nH]1` here?
Its GI50 is > 100 µM [sample A, 1 test] and 6.73 µM [sample B, 1 test].

What about the GI50 [17] of the same molecule?
Its GI50 is 5.91 µM [sample A, mean of 2 tests] and > 100 µM [sample B, mean of 2 tests].

How did the GI50 [37] turn out when `Nc1ncnc2c1ncn2C1OC(COS(N)(=O)=O)C(O)C1O` (configuration not stated) was run?
Its GI50 is 2.69 nM and 34.7 nM.

And the TGI [37]?
Its TGI is 7.04 nM and 122 nM.

And the TGI [38]?
Its TGI is 1.9 nM and 37.7 nM.

And the TGI [39]?
Its TGI is 6.14 nM and 68.2 nM.

What about the GI50 [3] of the same molecule?
Its GI50 is 2.31 nM and 34 nM.

What about the TGI [3] of the same molecule?
Its TGI is 5.15 nM and 143 nM.

What about the GI50 [40] of the same molecule?
The GI50 was 2.27 nM and 24 nM.

What about the TGI [40] of the same molecule?
Its TGI is 8.12 nM and 108 nM.

And the GI50 [30]?
Its GI50 is 2.72 nM and 31.8 nM.

What about the TGI [30] of the same molecule?
Its TGI is 8.13 nM and 99.9 nM.

What about the GI50 [7] of the same molecule?
The GI50 was 2.08 nM and 25.2 nM.

What about the TGI [7] of the same molecule?
Its TGI is 4.29 nM and 72.3 nM.

What about the GI50 [31] of the same molecule?
The GI50 was 1.2 nM and 18.7 nM.

And the TGI [31]?
Its TGI is 3.59 nM and 41.2 nM.

And the GI50 [41]?
The GI50 was 2.38 nM and 30.8 nM.

And the TGI [41]?
Its TGI is 5.87 nM and 92.2 nM.

And the TGI [9]?
Its TGI is 2.18 nM and 82.5 nM.

What about the GI50 [10] of the same molecule?
Its GI50 is 2.9 nM and 30.1 nM.

What about the GI50 [42] of the same molecule?
Its GI50 is < 1 nM and 10.9 nM.

And the TGI [42]?
Its TGI is 1.44 nM and 32 nM.

What about the GI50 [11] of the same molecule?
The GI50 was 2.36 nM and 25.7 nM.

What about the TGI [11] of the same molecule?
The TGI was 5.61 nM and 61.8 nM.

And the GI50 [43]?
Its GI50 is 2.15 nM and 30.7 nM.

And the TGI [43]?
The TGI was 6.32 nM and 108 nM.

What about the GI50 [12] of the same molecule?
The GI50 was 2.56 nM and 35.2 nM.

And the TGI [12]?
The TGI was 7.71 nM and 125 nM.

And the GI50 [13]?
The GI50 was 1.86 nM and 19.5 nM.

What about the TGI [13] of the same molecule?
Its TGI is 3.77 nM and 40 nM.

And the GI50 [44]?
Its GI50 is 1.31 nM and 30.6 nM.

What about the TGI [44] of the same molecule?
The TGI was 5.68 nM and 119 nM.

What about the GI50 [45] of the same molecule?
The GI50 was 1.67 nM and 21.1 nM.

And the GI50 [14]?
Its GI50 is 2.34 nM and 27.5 nM.

And the TGI [14]?
Its TGI is 4.78 nM and 71.6 nM.

What about the GI50 [34] of the same molecule?
Its GI50 is 2.48 nM and 30.3 nM.

And the TGI [34]?
The TGI was 6.12 nM and 91.5 nM.

And the GI50 [15]?
The GI50 was 2 nM and 21.4 nM.

And the TGI [15]?
Its TGI is 4.11 nM and 45.7 nM.

And the GI50 [16]?
Its GI50 is 2.7 nM and 56.7 nM.

And the TGI [16]?
The TGI was 7.34 nM and 384 nM.

And the GI50 [28]?
Its GI50 is 2.03 nM and 26.8 nM.

What about the TGI [28] of the same molecule?
The TGI was 4.61 nM and 77.4 nM.

And the GI50 [46]?
Its GI50 is < 1 nM and 20 nM.

And the TGI [46]?
Its TGI is 3.67 nM and 51.7 nM.

And the TGI [47]?
The TGI was 1.29 nM and 33.7 nM.

What about the GI50 [48] of the same molecule?
The GI50 was 1.27 nM and 32.8 nM.

What about the TGI [48] of the same molecule?
Its TGI is 5.02 nM and 108 nM.

And the GI50 [49]?
Its GI50 is < 1 nM and 24.5 nM.

What about the TGI [49] of the same molecule?
The TGI was 6.27 nM and 75.2 nM.

And the GI50 [18]?
The GI50 was 2.73 nM and 28.4 nM.

And the TGI [18]?
The TGI was 6.41 nM and 80.6 nM.

What about the GI50 [50] of the same molecule?
Its GI50 is < 1 nM and 18.4 nM.

And the TGI [50]?
The TGI was 5.2 nM and 371 nM.

And the GI50 [29]?
The GI50 was < 1 nM and 19.6 nM.

And the TGI [29]?
The TGI was 2.5 nM and 116 nM.

What about the GI50 [20] of the same molecule?
The GI50 was 2.04 nM and 22.5 nM.

And the GI50 [36]?
Its GI50 is 2.47 nM and 29.7 nM.

And the TGI [23]?
Its TGI is 4.76 nM and 58.9 nM.

And the GI50 [51]?
The GI50 was 2.03 nM and 22 nM.

What about the TGI [51] of the same molecule?
The TGI was 5.19 nM and 58.6 nM.

What about the GI50 [52] of the same molecule?
Its GI50 is 1.49 nM and 21.9 nM.

What about the TGI [52] of the same molecule?
The TGI was 3.85 nM and 51.1 nM.

What about the GI50 [53] of the same molecule?
Its GI50 is 2.08 nM and 22.3 nM.

What about the TGI [53] of the same molecule?
The TGI was 4.6 nM and 49.4 nM.

Which results are given for `CCOC(=O)C(Cc1c[nH]c2cc(N(CCO)CCO)ccc12)(NC(C)=O)C(=O)OCC`?
TGI [54]: 82.8 µM and > 1 mM; GI50 [19]: 38 µM and > 1 mM

Source: PubChem BioAssay (NCI)
